Results reported in PubChem BioAssay AID1963576 (National Center for Advancing Translational Sciences (NCATS), 2024).
The campaign covered roughly 46,000 compounds. About 60 (0.1%) were called active. Another 3% or so got no clear call; they are omitted. Calls follow the shape of the dose curve; as a rule, active = well fitted inhibition curve with a large enough effect; inconclusive = small, poorly fitted or top-dose-only effect; inactive = no such curve, though single readings can be large or run the other way. This is one part of the list.

Assay: Primary qHTS assay for Inhibitors of ovarian cancer metastasis using an organotypic tumor microenvironment (TME) model. Also: nearly all actives have a fitted effect of over 65% in size.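 As to activity change, negative = inhibition: plate controls were DMSO wells for no effect and tomatine positive control wells for full effect.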
Details: SKOV3ip1-GFP adhesion/invasion on 3D omental model, fluorescence; series mostly up to 45.8 µM; activity change, negative = inhibition: at the top concentration
Method in brief: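 Primary human omental fibroblast/mesothelial 3D culture pre-formed 48 h. SKOV3ip1-GFP cells added with compounds (0.36-46 umol/L), incubated 2 h RT/16 h 37 C, fixed; GFP cells quantified at 488/509 nm.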
With `COc1cccc(CNS(=O)(=O)c2ccc3c(c2)CC(C)N3C(=O)C2CCC2)c1` (stereo not drawn) the “outcome” value was “inactive”.
In the case of `Cc1ccc2cccc(NC(=O)c3cccc4c(Br)cccc34)c2n1`, the “activity change, negative = inhibition” value was inactive: 55.5%.
With `O=C(Cn1c(=O)n(-c2ccc(Cl)cc2)c(=O)c2c3c(sc21)CCCCC3)Nc1cccc(Cl)c1` the “outcome” value was “inactive”.
With `O=C(NCc1cccc(Cl)c1)c1cc2c(s1)-c1ccccc1SC2` the “activity change, negative = inhibition” value was inactive: -1.97%.
With `Cc1ccccc1C(=O)Nc1cc2c(cc1N1CCCCC1)n(C)c(=O)n2C` the “outcome” value was “inactive”.
With `COc1ccc(N2CCN(C(=O)c3ccc4c(c3)N(Cc3cccc(Cl)c3)C(=O)c3ccccc3S4(=O)=O)CC2)cc1` the “activity change, negative = inhibition” value was inactive: -6.35%.
With `CCCn1cc(S(=O)(=O)c2ccc(C)c(C)c2)c(=O)c2cc(F)c(N3CCC(C)CC3)cc21` the “activity change, negative = inhibition” value was inactive: 3.24%.
In the case of `CCn1c(=O)n(-c2ccc3c(c2)OCO3)c2nc(-c3cccc(OC)c3OC)nc(C(N)=O)c21`, the “outcome” value was “inactive”.
With `Cc1cc(C)c2nc(N3CCCC(C(=O)NCc4ccccc4F)C3)sc2c1` (stereo not drawn) the “activity change, negative = inhibition” value was inactive: -7.05%.
For `CCOC(=O)CC(NC(=O)c1cc2c(=O)n3cccc(C)c3nc2s1)c1ccc(OCC)c(OC)c1` (stereo not drawn), the “activity change, negative = inhibition” value was inactive: -1.44%.
In the case of `CCOc1ccccc1N(C)C(=O)c1cc2c(s1)-c1ccccc1OC2`, the “activity change, negative = inhibition” value was inactive: 7.01%.
For `CC(C)OCCCNC(=O)Cc1ccc(NC(=O)N2CCCCc3ccccc32)cc1`, the “activity change, negative = inhibition” value was inactive: 6.88%.
In the case of `CCc1ccccc1NC(=O)Cn1c(=O)n(-c2cccc(C)c2)c(=O)c2c1c1cc(OC)ccc1n2C`, the “activity change, negative = inhibition” value was inactive: 40.1%.
In the case of `COc1ccc(-c2noc(CCC(=O)Nc3cccc(C)c3C)n2)cc1OC`, the “outcome” value was “inactive”.
For `Cc1ccc(S(=O)(=O)c2cn(CC(=O)Nc3ccc(F)cc3)c3cc4c(cc3c2=O)OCO4)cc1`, the “activity change, negative = inhibition” value was inactive: 57.3%.
With `CCc1cccc(NC(=O)Nc2cn(C)c(=O)c3ccccc23)c1` the “outcome” value was “inactive”.
With `Cc1ccc(C(=O)COC(=O)c2cc(-c3cccs3)nc3ccccc23)cc1` the “activity change, negative = inhibition” value was inactive: -0.0125%.
With `COc1cccc(NC(=O)C2CCN(S(=O)(=O)c3c(C)noc3C)CC2)c1` the “outcome” value was “inactive”.
For `CCCCc1nc(SCC(=O)Nc2ccc(S(N)(=O)=O)cc2)n[nH]1`, the “outcome” value was “inactive”.
For `Cc1ccc(NC(=O)Cn2c(=O)n(CC(=O)NCCc3ccccc3)c(=O)c3ccccc32)cc1C`, the “activity change, negative = inhibition” value was inactive: 38.4%.
For `CCc1nc2ccccc2n2c(-c3ccccc3)c3c(=O)n(C)c(=O)n(C)c3c12`, the “activity change, negative = inhibition” value was inactive: -3.81%.
With `COc1ccc(-n2c(=O)c3c4c(sc3n(Cc3ccc(C)cc3C)c2=O)CCC4)c(OC)c1` the “outcome” value was “inactive”.
In the case of `CCc1c(C)nc2nncn2c1Nc1ccc(Cl)cc1`, the “activity change, negative = inhibition” value was inactive: -7.37%.
For `COc1cc(C(CC(=O)NCc2ccccc2)N2Cc3ccccc3C2=O)cc(OC)c1OC` (stereo not drawn), the “activity change, negative = inhibition” value was inactive: -2.15%.
With `COc1ccc(OC)c(CNC(=O)Cn2ncc3c([nH]c4ccc(C)cc43)c2=O)c1` the “activity change, negative = inhibition” value was inactive: 3.5%.
For `CCOc1ccccc1NS(=O)(=O)c1ccc2c(c1)CC(C)N2C(=O)C1CC1` (stereo not drawn), the “activity change, negative = inhibition” value was inactive: -30.1%.
With `CCC(C(=O)Nc1ccc(C(C)=O)cc1)n1cnc2nc3c(cc2c1=O)CCCC3` (stereo not drawn) the “outcome” value was “inactive”.
For `Cc1cc(C)n2nc(CNC(=O)c3ccccc3Cl)nc2n1`, the “activity change, negative = inhibition” value was inactive: 35%.
With `Cc1cc(C)cc(NC(=O)CCc2nnc3n(C)c(=O)c4sccc4n23)c1` the “outcome” value was “inactive”.
In the case of `CC1=C(C(=O)Nc2cc(Cl)ccc2C)C2(CCCCC2)OC1=O`, the “activity change, negative = inhibition” value was inactive: 7.56%.
With `O=C(NCCc1csc(-c2ccc(F)cc2)n1)c1ccco1` the “activity change, negative = inhibition” value was inactive: -6.38%.
In the case of `CCOc1ccc(N2C(=O)CS(=O)(=O)C23C(=O)N(Cc2cccc(Cl)c2)c2ccccc23)cc1` (stereo not drawn), the “outcome” value was “inactive”.
With `CC(C)(C)OC(=O)N1CCC(c2c(C(=O)NCCc3ccsc3)cnn2-c2ccccc2Cl)CC1` the “activity change, negative = inhibition” value was inactive: -17.3%.
With `CCC(CC)C(=O)OCc1cc(=O)n2nc(C3CCCCC3)sc2n1` the “activity change, negative = inhibition” value was inactive: 3.6%.
In the case of `Cc1ccc(-c2c(C(=O)N3CCN(c4cccc(C)c4)C(C)C3)oc(=O)c3ccccc23)cc1` (stereo not drawn), the “activity change, negative = inhibition” value was inactive: 58.7%.
For `CCOc1ccc(CN2CCc3nc(N4CCN(c5ncccn5)CC4)ncc3C2)cc1OC`, the “activity change, negative = inhibition” value was inactive: -5.52%.
In the case of `CCOC(=O)c1c(C)[nH]c(C)c1S(=O)(=O)N(C)CC(=O)N1CCN(c2ccc(Cl)cc2)CC1`, the “outcome” value was “inactive”.
In the case of `CCOc1ccc(NC(=O)C2CCN(c3nc4ccccc4[nH]3)CC2)cc1`, the “activity change, negative = inhibition” value was inactive: 2.39%.
In the case of `COC(=O)c1c(SC)nc2ccccc2c1OCc1ccccc1Cl`, the “activity change, negative = inhibition” value was inactive: -0.432%.
With `COc1ccc2c(C)c(CCC(=O)NCc3ccc(C)cc3)c(=O)oc2c1` the “outcome” value was “inactive”.
In the case of `CCSc1ccc(C(=O)Nc2ccc(-c3nc4ccc(C)cc4s3)cc2)cc1`, the “activity change, negative = inhibition” value was inactive: -7.77%.
For `COc1ccc(S(=O)(=O)NCCc2nnc3ccc(SCC(=O)Nc4cc(C)cc(C)c4)nn23)cc1`, the “activity change, negative = inhibition” value was inactive: 5.15%.
In the case of `O=C(Nc1cccc(OCc2cc(=O)n3ccccc3n2)c1)c1ccccc1Br`, the “activity change, negative = inhibition” value was inactive: -2.45%.
In the case of `CCC1CN(C(=O)NCc2ccccc2)c2cc(Cl)ccc2O1` (stereo not drawn), the “activity change, negative = inhibition” value was inactive: -7.2%.
In the case of `Cc1ccc(-c2nc3c(c(SCC(=O)N(C)c4ccccc4)n2)Cc2c(CO)cnc(C)c2O3)cc1`, the “activity change, negative = inhibition” value was inactive: 0.984%.
For `CCN(CC)c1cc(C)c2cc(NC(=O)c3ccccc3Cl)ccc2n1`, the “activity change, negative = inhibition” value was inactive: -3.98%.
With `CCOC(=O)c1ccc(NC(=O)CSc2ccc(-c3ccccn3)nn2)cc1` the “activity change, negative = inhibition” value was inactive: -16.7%.
For `CCOC(=O)CC(NC(=O)c1cc2cc(Br)cc(OC)c2oc1=O)c1ccc(OC)cc1` (stereo not drawn), the “outcome” value was “inactive”.
